Measurements reported in PubChem BioAssay (NCI).
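Method: 48-hour compound exposure of cells in 96-well plates, five concentrations, linear interpolation of endpoints. GI50 is the concentration that inhibits growth by half. At the TGI there is no net growth.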

Tested on: NCI-H322M lung
Experiment: growth of human tumour cells (NCI), 48 h

Row | Structure (SMILES) | GI50 | TGI
1 | N#Cc1c(-c2ccc(Cl)cc2)nc(SCc2ccc(F)cc2)nc1N1CCNCC1 | 2.17 µM | 5.53 µM
2 | CCO/C=N/C1=C(C#N)C(c2ccc(F)cc2)c2sc3c(CC)cccc3c2O1 (centres undefined) | 0.699 µM | 18.2 µM
